The other results are listed elsewhere or left out. Most values come without repeats; read them as rough.
Each compound was assayed on G361 (assay: cell count relative to DMSO control; melanoma cells; higher = more viable cells). Settings: library dose: low library concentration; 72 h.
`O=C1NC(=O)/C(=C/c2ccc(-c3ccc(F)cc3O)o2)S1` + COc1cc(N2CCC(N3CCN(C)CC3)CC2)ccc1Nc1ncc(Cl)c(Nc2ccccc2S(=O)(=O)C(C)C)n1 [NVP-TAE684] (first compound 1 µM, partner dose 0.08 µM) gave a cell count of 101%.
`O=S(=O)(c1ccccc1)N(CC(F)(F)F)c1ccc(C(O)(C(F)(F)F)C(F)(F)F)cc1` + CCCCCCCCCCCC1=C(O)C(=O)C=C(O)C1=O [Embelin] (first compound 1.4 µM, partner dose 1.2 µM) gave a cell count of 91%.
Compound `O=C(O)C(=O)Nc1sc2c(c1C(=O)O)CCNC2` + O=C1NC(=O)/C(=C/c2ccc(-c3ccc(F)cc3O)o2)S1 [AS252424] (first compound 1.66667 µM, partner dose 1 µM) has a cell count of 100%.
For `Cc1cc([N+](=O)[O-])ccc1NS(=O)(=O)c1cc(Cl)ccc1Cl` + CC(C)CCN1c2nc(Nc3cc(F)c(O)c(F)c3)ncc2N(C)C(=O)C1C [BID1870] (first compound 1 µM, partner dose 0.2 µM), the cell count was 78.9%.
`COc1ccc2c(c1)CCC1C2CCC2(C)C(NCCCCCCN3C(=O)C=CC3=O)CCC12` (stereo unspecified) + O=S(=O)(c1ccccc1)N(CC(F)(F)F)c1ccc(C(O)(C(F)(F)F)C(F)(F)F)cc1 [T0901317] (first compound 0.4 µM, partner dose 1.4 µM) was tested, and the cell count was 83.5%.
`Oc1nc(-c2ccc(C(F)(F)F)cc2)nc2c1CSCC2` + CC(C)CCN1c2nc(Nc3cc(F)c(O)c(F)c3)ncc2N(C)C(=O)C1C [BID1870] (first compound 2 µM, partner dose 0.2 µM) gave a cell count of 85.8%.

From the supplement of paper PMC4604168 (melanoma cell lines)
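Also: cell number obtained by counting DAPI-stained nuclei in high-throughput microscope images with image analysis software, screen run in 1,536-well plates.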
